{"source": "PubChem BioAssay AID602179", "about": "(National Center for Advancing Translational Sciences (NCATS), 2012)", "note": "Out of some 390,000 compounds screened, about 360 (0.092%) were called active. This list was built around the results that the source calls inconclusive (neither active nor inactive); the mix of calls is not that of the screen. The call rests on the fitted dose curve; in most records, active means well fitted inhibition curve with a large enough effect; inconclusive means small, poorly fitted or top-dose-only effect; inactive means no such curve, though single readings can be large or run the other way. Potencies beside an inconclusive call are fits to weak or partial responses and may not hold up. Potency means the concentration at half of the fitted maximal effect; tags describe the fitted curve by direction and shape."}
{"biological_target": "Isocitrate dehydrogenase [NADP] cytoplasmic (Homo sapiens) (UniProt O75874)", "experiment": "qHTS for Inhibitors of mutant isocitrate dehydrogenase 1 (IDH1): qHTS; further: nearly all actives have a fitted effect of over 65% in size", "conditions": "IDH1-R132H enzyme, NADPH consumption, diaphorase/resazurin fluorescence; series mostly up to 76.6 µM", "in_short": "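IDH1-R132H (0.5 ug/mL) preincubated 30 min with compound, then NADPH (0.016 mM) and alpha-KG (2 mM) added; 80 min at RT, pH 7.5. Remaining NADPH coupled via diaphorase/resazurin to fluorescence (540/590 nm); concentration-response curves normalized to no-enzyme control.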"}
{"compound": "CSc1ccc(S(=O)(=O)Nc2ccc(S(=O)(=O)Nc3ccc(C)cc3)cc2)cc1", "Potency": "inconclusive: 50.1 µM [inhibitor, partial curve, poor fit]"}
{"compound": "CCCOc1ccc(C(=O)Nc2cc3c(cc2N2CCCCC2)n(C)c(=O)n3C)cc1", "Potency": "inactive"}
{"compound": "CCn1c(=O)c2cc(C(=O)N(C)c3ccccc3F)sc2c2ccccc21", "Potency": "inconclusive: 20.7 µM [inhibitor, single point]"}
{"compound": "O=C1c2[nH]nc(-c3ccc(F)cc3)c2C(c2ccccc2F)N1c1ccccc1", "note": "(stereo not given)", "Potency": "inconclusive: 39.8 µM [inhibitor, partial curve]"}
{"compound": "c1cn2cc(-c3ccc4c(c3)OCO4)nc2s1", "Potency": "active: 23.3 µM"}
{"compound": "CCc1ccc(C2c3c(-c4ccccc4O)n[nH]c3C(=O)N2Cc2cccnc2)cc1", "note": "(stereo not given)", "Potency": "inconclusive: 14.1 µM [inhibitor, full curve, poor fit]"}
{"compound": "CCn1c(=O)n(CC)c2cc(N3CCCC3)c(NC(=O)c3ccc(OC)c(Br)c3)cc21", "Potency": "inconclusive: 52.1 µM [inhibitor, single point]"}
{"compound": "Cc1ccc(S(=O)(=O)N2CC(O)C[C@H]2C(=O)OCC(=O)N2CCN(c3ccc(F)cc3)CC2)cc1C", "note": "(stereo not given in full)", "Potency": "inactive"}
{"compound": "CCC(=O)N1c2ccc(S(=O)(=O)CCC(=O)NCc3cccc(OC)c3)cc2CC1C", "note": "(stereo not given)", "Potency": "inactive"}
{"compound": "COc1ccc([C@H]2CC(=O)C=C(c3ccccc3)C2)cc1", "Potency": "inactive"}
{"compound": "Cc1cc(C)cc(N(C(=O)c2sc(C)nc2C)C(C(=O)NCc2ccco2)c2ccccc2)c1", "note": "(stereo not given)", "Potency": "inconclusive: 11.7 µM [inhibitor, full curve]"}
{"compound": "CC(C)(C)CC(C)(C)c1ccc(OCC(=O)Nc2ccc(S(=O)(=O)Nc3ncccn3)cc2)cc1", "Potency": "inconclusive: 50.1 µM [inhibitor, single point]"}
{"compound": "Cc1[nH]n(-c2ncc(-c3ccccc3)s2)c(=O)c1C(c1ccc(Br)cc1)C(C#N)C#N", "note": "(stereo not given)", "Potency": "inconclusive: 50.1 µM [inhibitor, single point]"}
{"compound": "CCN(c1ccccc1)S(=O)(=O)c1cc(NC(=O)Nc2ccccc2C#N)ccc1Cl", "Potency": "inactive"}
{"compound": "CCOc1ccccc1N(C(=O)c1snc(C(N)=O)c1N)C(C(=O)NC1CCCC1)c1cccs1", "note": "(stereo not given)", "Potency": "inconclusive: 39.8 µM [inhibitor, partial curve, poor fit]"}
{"compound": "CC(=O)c1ccc(Nc2nc(-c3sc(C)nc3C)cs2)cc1", "Potency": "inactive"}
{"compound": "Cc1ncc([N+](=O)[O-])n1CCOC(=O)NC(NCc1ccccc1)C(Cl)(Cl)Cl", "note": "(stereo not given)", "Potency": "inactive"}
{"compound": "Cc1ccc(OCCn2cc(C(=O)C3CCCCC3)c3ccccc32)cc1", "Potency": "inactive"}
{"compound": "CCn1c(SCc2nc3ccccc3s2)nnc1-c1cccs1", "Potency": "inactive"}
{"compound": "COc1cc2c(=O)c(C(=O)c3ccc(C)c(C)c3)cn(Cc3ccccc3F)c2cc1OC", "Potency": "inconclusive: 14.1 µM [inhibitor, full curve, poor fit]"}
{"compound": "O=C(Nn1c(C2CCCCC2)nc2ccccc2c1=O)c1ccc(Cl)c([N+](=O)[O-])c1", "Potency": "inconclusive: 46.5 µM [inhibitor, partial curve, poor fit]"}
{"compound": "O=C(NC1CCCCC1)c1n[nH]c2c1CCCCC2", "Potency": "inactive"}
{"compound": "O=C(C=P(c1ccccc1)(c1ccccc1)c1ccccc1)c1ccccc1-c1ccccc1C(=O)C=P(c1ccccc1)(c1ccccc1)c1ccccc1", "Potency": "active: 23.3 µM"}
{"compound": "CCc1cc2c(-c3ccccc3)cc(=O)oc2cc1OCC(=O)NCC1CCC(C(=O)O)CC1", "note": "(stereo not given)", "Potency": "inconclusive: 50.1 µM [inhibitor, partial curve, poor fit]"}
{"compound": "COc1cc(-c2nc(-c3ccc4c(c3)-c3ccccc3S4(=O)=O)c(-c3ccccc3)[nH]2)cc(OC)c1O", "Potency": "inconclusive: 7.36 µM [inhibitor, partial curve]"}
{"compound": "O=C1C(O)=C(O)C(=O)c2ccccc21", "Potency": "inconclusive: 50.1 µM [inhibitor, single point]"}
{"compound": "O=C1OC(c2ccccc2)(c2cc(Br)ccc2O)c2ccccc21", "note": "(stereo not given)", "Potency": "inconclusive: 26.1 µM [inhibitor, single point]"}
{"compound": "CCNC(=S)Nc1cccc(NC(=O)c2ccccc2O)c1", "Potency": "inconclusive: 44.7 µM [inhibitor, partial curve, poor fit]"}
{"compound": "COc1cc(C#Cc2c(-c3cncn3C)n(C)c3ccc(-c4cc(OC)c(OC)c(OC)c4)cc23)cc(OC)c1", "Potency": "inconclusive: 44.7 µM [inhibitor, partial curve, poor fit]"}
{"compound": "Cc1cccc[n+]1CCCCCCCCCC[n+]1ccccc1C", "Potency": "inactive"}
{"compound": "COc1cc(NC(=O)CSc2nc(C)c(C(=O)Nc3ccccc3)c(-c3ccc(OC)c(OC)c3)c2C#N)c(OC)cc1Cl", "Potency": "inconclusive: 50.1 µM [inhibitor, single point]"}
{"compound": "CC(/C=C1\\SC(=S)N(c2ccc(C(=O)O)cc2)C1=O)=C\\c1ccccc1", "Potency": "active: 23.3 µM"}
{"compound": "O=C(Nc1ccc(N2CCC(N3CCCCC3)CC2)c(C(=O)O)c1)c1ccccc1", "Potency": "inconclusive: 44.7 µM [inhibitor, partial curve, poor fit]"}
{"compound": "COc1ccc(-c2nn3c(-c4ccc(C)cc4)nnc3c3ccccc23)cc1", "Potency": "inconclusive: 50.1 µM [inhibitor, single point]"}
{"compound": "CC1(OC(=O)c2cccs2)C(=O)C=C2C=C3CCCN3C=C2C1=O", "note": "(stereo not given)", "Potency": "inconclusive: 50.1 µM [inhibitor, single point]"}
{"compound": "CC(C)c1ccc(NC(=O)C(c2ccccc2)N2CC(=O)Nc3ccccc32)cc1", "note": "(stereo not given)", "Potency": "inconclusive: 39.8 µM [inhibitor, partial curve]"}
{"compound": "Cc1ccccc1NC(=O)N1CCCC(c2nc(-c3ccc(C(C)C)cc3)no2)C1", "note": "(stereo not given)", "Potency": "inactive"}
{"compound": "CCc1nnc2n1N=C(c1ccc(Cl)cc1)CS2", "Potency": "inactive"}
{"compound": "COC(=O)c1ccc(Cn2cc(/C=C\\[N+](=O)[O-])c3ccccc32)o1", "Potency": "inconclusive: 26.1 µM [inhibitor, single point]"}
{"compound": "COc1ccccc1Nc1nc(-c2ccccc2Cl)c2cc(Br)ccc2n1", "Potency": "inconclusive: 70.8 µM [inhibitor, single point]"}
{"compound": "O=C(NCCN1C(=O)S/C(=C/c2cccnc2)C1=O)c1ccc(S(=O)(=O)N2CCCC2)cc1", "Potency": "inconclusive: 58.5 µM [inhibitor, partial curve, poor fit]"}
{"compound": "Cc1ccc(C)c(NC(=S)c2ccccn2)c1", "Potency": "inactive"}
{"compound": "COc1cc(NC(=O)c2nc3ccccc3nc2N2CCCCC2)cc(OC)c1OC", "Potency": "inconclusive: 63.1 µM [inhibitor, single point]"}
{"compound": "COc1ccc(NC2SC(=O)N(C)C2=O)cc1", "note": "(stereo not given)", "Potency": "inconclusive: 58.5 µM [inhibitor, single point]"}
{"compound": "COc1cc(C2c3c(-c4ccc(C)cc4)n[nH]c3C(=O)N2c2ccc(F)cc2)ccc1O", "note": "(stereo not given)", "Potency": "inconclusive: 44.7 µM [inhibitor, partial curve, poor fit]"}
{"compound": "Cc1c(OCc2ccc(C(=O)O)cc2)ccc2c(-c3ccccc3)cc(=O)oc12", "Potency": "inconclusive: 58.5 µM [inhibitor, single point]"}
{"compound": "CCOc1cc2nc(-c3ccc(OC)c(OC)c3)nc(N3CCOCC3)c2cc1OC", "Potency": "inconclusive: 14.7 µM [inhibitor, full curve]"}
{"compound": "NS(=O)(=O)c1cccc(NC(=S)NC(=O)C23CC4CC(CC(C4)C2)C3)c1", "Potency": "inactive"}
{"compound": "COc1cccc(C2NC(=S)NC3=C2CCc2ccccc23)c1", "note": "(stereo not given)", "Potency": "inconclusive: 58.5 µM [inhibitor, single point]"}
{"compound": "COc1ccc(S(=O)(=O)c2cnc3cc(OC)c(OC)cc3c2N2CCCC(C)C2)cc1", "note": "(stereo not given)", "Potency": "inconclusive: 31.6 µM [inhibitor, partial curve]"}
{"compound": "CC(C)CCOc1ccc(C2N=C(N)Nc3nc4ccccc4n32)cc1", "note": "(stereo not given)", "Potency": "inconclusive: 50.1 µM [inhibitor, single point]"}
{"compound": "O=C(NC(=S)Nc1ccc2c(c1)OCCO2)c1cccc(Br)c1", "Potency": "inactive"}
{"compound": "CCN(CC)C(=O)c1ccc2c(c1)N(Cc1c(F)cccc1Cl)C(=O)c1ccccc1S2", "Potency": "active: 31.6 µM"}
{"compound": "O=C(Nc1ccc(Cl)cc1)Nc1ccccc1Sc1ncc([N+](=O)[O-])s1", "Potency": "inconclusive: 14.1 µM [inhibitor, full curve, poor fit]"}
{"compound": "CCOC(=O)c1cc2c(=O)n3ccccc3nc2n(CC(C)C)c1=NC(=O)COc1ccc(Cl)cc1", "Potency": "inconclusive: 44.7 µM [inhibitor, single point]"}
{"compound": "COc1ccc(-c2cn3nc(N4CCC(C(=O)Nc5ccccc5OC)CC4)sc3n2)cc1", "Potency": "inconclusive: 50.1 µM [inhibitor, single point]"}
{"compound": "C=CC(C)(C)c1c(O)c(CC=C(C)C)c(O)c2c(=O)c3ccc(O)c(O)c3oc12", "Potency": "inconclusive: 50.1 µM [inhibitor, single point]"}
{"compound": "Cc1c(CCC(=O)O)c(=O)oc2cc3occ(-c4ccccc4)c3cc12", "Potency": "inconclusive: 58.5 µM [inhibitor, single point]"}
{"compound": "O=C(NC1CCCC1)C(c1ccsc1)N(C(=O)Cc1cccs1)c1cccc(F)c1", "note": "(stereo not given)", "Potency": "inconclusive: 1.47 µM [inhibitor, full curve, poor fit]"}
{"compound": "O=C(NCc1ccco1)C(c1cccs1)N(C(=O)Cc1cccs1)c1ccccc1", "note": "(stereo not given)", "Potency": "inconclusive: 14.7 µM [inhibitor, full curve]"}
{"compound": "CCOC(=O)c1c(C)[nH]c(C(=O)N2CCc3cc(OC)c(OC)cc3C2)c1C", "Potency": "inactive"}
{"compound": "CCN(C(=O)CSc1nc(C)nc2sc(C)c(C)c12)c1ccc(F)cc1", "Potency": "inactive"}
{"compound": "CC(C)n1cnnc1SCC(=O)Nc1ccc(N2CCCCC2)cc1", "Potency": "inactive"}
{"compound": "Cn1c(=O)c2c(-c3ccc(Br)cc3)n(Cc3ccc(F)cc3)cc2n(C)c1=O", "Potency": "inconclusive: 50.1 µM [inhibitor, single point]"}
{"compound": "Cc1nn(-c2ccccc2)c(Cl)c1CN(C(=O)CCl)c1cccc2ccccc12", "Potency": "inconclusive: 52.1 µM [inhibitor, partial curve, poor fit]"}
